Test results: a collection of fitness landscapes (doi:10.1016/j.celrep.2020.107928)
In all, about 81,000 sequences were measured (“one-hybrid fitness for binding parS DNA”: median about -0.17, highest 2% from about 0.51 on). This is one part of the list.

B1: Caulobacter ParB omega fusion; a variant is named by its letters at X, in order, B8GW30 (parent)
chain: MESVVVGEPGMSEGRRGLGRGLSALLGEVDAAPAQAPGEQLGGSREAPIEILQRNPDQPRRTFREEDLEDLSNSIREKGVLQPILVRPSPDTAGEYQIVAGERAWRAAQRAGLKTVPIMVRELDDLAVLEIGIIENVQRADLNVLEEALSYKVLMEKFERTQENIAQTIGKSXSHVANXMRLLXLPDEVQSYLVSGELTAXHARAIAAAADPVALAKQIIEGGLSVRETEALARKAPNLSAGKSKGGRPPRVKDTDTQALESDLSSVLGLDVSIDHRGSTGTLTITYATLEQLDDLCNRLTRGI

Variants of: B1
Assay: one-hybrid fitness for binding parS DNA (scaled: cognate 1, non-cognate 0); higher = stronger binding
Conditions: with parS DNA site
Summary of the method: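 Caulobacter ParB libraries with four specificity codons randomised were screened by bacterial one-hybrid selection in the E. coli USO strain, using a HIS3 reporter whose site lies 19 bp from the promoter. Selection ran for 48 hours at 37°C on M9 lacking histidine, with 0.1 mM IPTG and 5 mM 3-AT. Plasmids were Illumina-sequenced before and after selection, three replicate libraries were pooled, and variants with under 10 reads were dropped. Fitness is the log change in each variant's read ratio to wild type, rescaled against the cognate and non-cognate sites.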

Row | Variant | one-hybrid fitness for binding parS DNA
1 | RGNM | ≤ 0.2
2 | RHPA | ≤ 0.2
3 | AQYR | ≤ 0.2
4 | TRCM | ≤ 0.2
5 | EPCG | ≤ 0.2
6 | VHNS | ≤ 0.2
7 | RWGG | 0.63
8 | QLMA | ≤ 0.2
9 | HVNI | ≤ 0.2
10 | RRSQ | ≤ 0.2
11 | RAIW | ≤ 0.2
12 | MLMS | ≤ 0.2
13 | TNRA | ≤ 0.2
14 | ESLC | ≤ 0.2
15 | RIMS | 1.04
16 | YAMS | ≤ 0.2
17 | DLAV | ≤ 0.2
18 | ILML | ≤ 0.2
19 | QDIS | ≤ 0.2
20 | TRPE | ≤ 0.2
21 | HLHY | ≤ 0.2
22 | SGYF | ≤ 0.2
23 | RCNW | 0.257
24 | LYIL | ≤ 0.2

Row | Variant | one-hybrid fitness for binding parS DNA
25 | HYRR | ≤ 0.2
26 | YKGD | ≤ 0.2
27 | GGHG | ≤ 0.2
28 | PFLE | ≤ 0.2
29 | YACP | ≤ 0.2
30 | KNPF | ≤ 0.2
31 | TTAW | ≤ 0.2
32 | LVDV | ≤ 0.2
33 | QLLK | ≤ 0.2
34 | LTKK | ≤ 0.2
35 | QASS | ≤ 0.2
36 | LGQD | ≤ 0.2
37 | KAEN | ≤ 0.2
38 | DAKM | ≤ 0.2
39 | GPGT | ≤ 0.2
40 | KFKM | ≤ 0.2
41 | NKSY | ≤ 0.2
42 | ILGG | ≤ 0.2
43 | VPTP | ≤ 0.2
44 | PTMN | ≤ 0.2
45 | MYGS | ≤ 0.2
46 | AGHL | ≤ 0.2
47 | LSDN | ≤ 0.2
48 | YAQL | ≤ 0.2

Row | Variant | one-hybrid fitness for binding parS DNA
49 | AMEI | ≤ 0.2
50 | WRNV | ≤ 0.2
51 | DLLQ | ≤ 0.2
52 | SHAM | ≤ 0.2
53 | EPLA | ≤ 0.2
54 | MKLI | ≤ 0.2
55 | CSNY | ≤ 0.2
56 | DHAC | ≤ 0.2
57 | VMER | ≤ 0.2
58 | HSSA | ≤ 0.2
59 | ARFT | ≤ 0.2
60 | FDNG | ≤ 0.2
61 | AKGY | ≤ 0.2
62 | MANR | ≤ 0.2
63 | RNQA | 0.489
64 | TPSI | ≤ 0.2
65 | KPNR | ≤ 0.2
66 | VYPW | ≤ 0.2
67 | VYYM | ≤ 0.2
68 | DRDI | ≤ 0.2
69 | PLFF | ≤ 0.2
70 | SHRY | ≤ 0.2
71 | RSEA | 0.476
72 | RTYG | 1.02

Row | Variant | one-hybrid fitness for binding parS DNA
73 | GDTT | ≤ 0.2
74 | PHSG | ≤ 0.2
75 | KLGH | ≤ 0.2
76 | HENG | ≤ 0.2
77 | PCVP | ≤ 0.2
78 | KPEK | ≤ 0.2
79 | ISFG | ≤ 0.2
80 | RQRY | 0.504
81 | QPQL | ≤ 0.2
82 | TGYY | ≤ 0.2
83 | VNTG | ≤ 0.2
84 | DSLC | ≤ 0.2
85 | LGKL | ≤ 0.2
86 | PRFL | ≤ 0.2
87 | KCAL | ≤ 0.2
88 | NDKV | ≤ 0.2
89 | ATCL | ≤ 0.2
90 | DKVT | ≤ 0.2
91 | AVPL | ≤ 0.2
92 | QPHT | ≤ 0.2
93 | ADDT | ≤ 0.2
94 | KRKY | ≤ 0.2
95 | WTMT | ≤ 0.2
96 | QLAS | ≤ 0.2

Row | Variant | one-hybrid fitness for binding parS DNA
97 | GDPG | ≤ 0.2
98 | RHCS | 0.938
99 | FNVS | ≤ 0.2
100 | CSLW | ≤ 0.2
101 | YKDF | ≤ 0.2
102 | ANGP | ≤ 0.2
103 | TLKG | ≤ 0.2
104 | RIGR | ≤ 0.2
105 | QQHG | ≤ 0.2
106 | WLWG | ≤ 0.2
107 | RHCD | ≤ 0.2
108 | NGQT | ≤ 0.2
109 | QSKM | ≤ 0.2
110 | RDTF | ≤ 0.2
111 | RHQN | 0.382
112 | TSRM | ≤ 0.2
113 | LKAK | ≤ 0.2
114 | VTGN | ≤ 0.2
115 | YVTR | ≤ 0.2
116 | SHRM | ≤ 0.2
117 | SINV | ≤ 0.2
118 | FQLS | ≤ 0.2
119 | QLQI | ≤ 0.2
120 | GKIT | ≤ 0.2

Row | Variant | one-hybrid fitness for binding parS DNA
121 | WTTS | ≤ 0.2
122 | SVIC | ≤ 0.2
123 | GRDH | ≤ 0.2
124 | YECC | ≤ 0.2
125 | RVHI | ≤ 0.2
126 | LRST | ≤ 0.2
127 | KLMN | ≤ 0.2
128 | TVDV | ≤ 0.2
129 | QQNH | ≤ 0.2
130 | MVKL | ≤ 0.2
131 | VMLR | ≤ 0.2
132 | TTKI | ≤ 0.2
133 | PVLN | ≤ 0.2
134 | ATIN | ≤ 0.2
135 | TPVC | ≤ 0.2
136 | LPCC | ≤ 0.2
137 | LRQS | ≤ 0.2
138 | TGTG | ≤ 0.2
139 | TMIV | ≤ 0.2
140 | HKEC | ≤ 0.2
141 | YFCS | ≤ 0.2
142 | KEPR | ≤ 0.2
143 | GDAL | ≤ 0.2
144 | EFNS | ≤ 0.2

Row | Variant | one-hybrid fitness for binding parS DNA
145 | KKNI | ≤ 0.2
146 | HICS | ≤ 0.2
147 | RWIL | ≤ 0.2
148 | VEYW | ≤ 0.2
149 | TDYY | ≤ 0.2
150 | DKKR | ≤ 0.2
151 | ECGG | ≤ 0.2
152 | VFQE | ≤ 0.2
153 | TLAH | ≤ 0.2
154 | LGNF | ≤ 0.2
155 | NKRY | ≤ 0.2
156 | EPIY | ≤ 0.2
157 | GSES | ≤ 0.2
158 | TECW | ≤ 0.2
159 | EVTR | ≤ 0.2
160 | YLKV | ≤ 0.2
161 | QSQW | ≤ 0.2
162 | YRYW | ≤ 0.2
163 | VKSR | ≤ 0.2
164 | YYAR | ≤ 0.2
165 | RSVN | 0.342
166 | QFIS | ≤ 0.2
167 | PHVF | ≤ 0.2
168 | LWRN | ≤ 0.2

Row | Variant | one-hybrid fitness for binding parS DNA
169 | NSHR | ≤ 0.2
170 | ARAS | ≤ 0.2
171 | RCWS | 1.09
172 | HPNI | ≤ 0.2
173 | TESV | ≤ 0.2
174 | VSKT | ≤ 0.2
175 | GHPC | ≤ 0.2
176 | DPMM | ≤ 0.2
177 | IYVV | ≤ 0.2
178 | LKSH | ≤ 0.2
179 | IFNS | ≤ 0.2
180 | WHGK | ≤ 0.2
181 | QSNG | ≤ 0.2
182 | VKHR | ≤ 0.2
183 | FDEG | ≤ 0.2
184 | QIWT | ≤ 0.2
185 | TYVH | ≤ 0.2
186 | QYGK | ≤ 0.2
187 | IHMM | ≤ 0.2
188 | PSFT | ≤ 0.2
189 | VPDC | ≤ 0.2
190 | WGCS | ≤ 0.2
191 | KYAG | ≤ 0.2
192 | NKTG | ≤ 0.2

Row | Variant | one-hybrid fitness for binding parS DNA
193 | WPNR | ≤ 0.2
194 | AKEK | ≤ 0.2
195 | NFTQ | ≤ 0.2
196 | PEMM | ≤ 0.2
197 | YYNE | ≤ 0.2
198 | SGSG | ≤ 0.2
199 | CGSS | ≤ 0.2
200 | HHVC | ≤ 0.2
201 | GWCR | ≤ 0.2
202 | QKNS | ≤ 0.2
203 | IWGR | ≤ 0.2
204 | QTNS | ≤ 0.2
205 | AHTS | ≤ 0.2
206 | ETHG | ≤ 0.2
207 | LLLS | ≤ 0.2
208 | SAPI | ≤ 0.2
209 | TATM | ≤ 0.2
210 | ADRI | ≤ 0.2
211 | DGVL | ≤ 0.2
212 | ESSR | ≤ 0.2
213 | HNGR | ≤ 0.2
214 | WYAR | ≤ 0.2
215 | DGAA | ≤ 0.2
216 | MSDT | ≤ 0.2

Row | Variant | one-hybrid fitness for binding parS DNA
217 | WYKS | ≤ 0.2
218 | NDAC | ≤ 0.2
219 | EASE | ≤ 0.2
220 | SWHM | ≤ 0.2
221 | RYDL | ≤ 0.2
222 | SWAI | ≤ 0.2
223 | RTWM | 0.381
224 | KCTH | ≤ 0.2
225 | WRDE | ≤ 0.2
226 | NHWI | ≤ 0.2
227 | GVRN | ≤ 0.2
228 | ISNV | ≤ 0.2
229 | VTEN | ≤ 0.2
230 | VKCE | ≤ 0.2
231 | RCNH | 0.242
232 | RTDG | 0.935
233 | GVGL | ≤ 0.2
234 | EVSC | ≤ 0.2
235 | KSES | ≤ 0.2
236 | DSPY | ≤ 0.2
237 | RVKH | ≤ 0.2
238 | GFRR | ≤ 0.2
239 | PAWS | ≤ 0.2
240 | YGHR | ≤ 0.2

Row | Variant | one-hybrid fitness for binding parS DNA
241 | SDIL | ≤ 0.2
242 | PVGY | ≤ 0.2
243 | CWYS | ≤ 0.2
244 | WYNE | ≤ 0.2
245 | WMST | ≤ 0.2
246 | KKIT | ≤ 0.2
247 | GIES | ≤ 0.2
248 | KPKL | ≤ 0.2
249 | MHTG | ≤ 0.2
250 | HCVY | ≤ 0.2
251 | QKCL | ≤ 0.2
252 | NCKR | ≤ 0.2
253 | PVVY | ≤ 0.2
254 | MGVR | ≤ 0.2
255 | LRRW | ≤ 0.2
256 | MVGR | ≤ 0.2
257 | TSNF | ≤ 0.2
258 | HKDY | ≤ 0.2
259 | SKTM | ≤ 0.2
260 | SSLE | ≤ 0.2
261 | VHWR | ≤ 0.2
262 | WPPS | ≤ 0.2
263 | LKGR | ≤ 0.2
264 | TTSF | ≤ 0.2

Row | Variant | one-hybrid fitness for binding parS DNA
265 | RSIY | 0.305
266 | SHAD | ≤ 0.2
267 | GPAE | ≤ 0.2
268 | GPSM | ≤ 0.2
269 | CRSY | ≤ 0.2
270 | MMMG | ≤ 0.2
271 | DAHG | ≤ 0.2
272 | QCTP | ≤ 0.2
273 | RAHI | ≤ 0.2
274 | ALPP | ≤ 0.2
275 | SWDV | ≤ 0.2
276 | PMQW | ≤ 0.2
277 | ARMG | ≤ 0.2
278 | EKVS | ≤ 0.2
279 | HKDG | ≤ 0.2
280 | NLQR | ≤ 0.2
281 | DRNK | ≤ 0.2
282 | EFMS | ≤ 0.2
283 | TRSE | ≤ 0.2
284 | AYDD | ≤ 0.2
285 | SVYG | ≤ 0.2
286 | PPGK | ≤ 0.2
287 | MISF | ≤ 0.2
288 | SCPG | ≤ 0.2

Row | Variant | one-hybrid fitness for binding parS DNA
289 | HRKM | ≤ 0.2
290 | MWIR | ≤ 0.2
291 | RELA | ≤ 0.2
292 | HRSV | ≤ 0.2
293 | HYEC | ≤ 0.2
294 | SHFC | ≤ 0.2
295 | TTNP | ≤ 0.2
296 | NMPC | ≤ 0.2
297 | SLPR | ≤ 0.2
298 | HFNT | ≤ 0.2
299 | SFCH | ≤ 0.2
300 | TKEQ | ≤ 0.2
301 | LMQP | ≤ 0.2
302 | WHES | ≤ 0.2
303 | YEPF | ≤ 0.2
304 | EVTD | ≤ 0.2
305 | DRTK | ≤ 0.2
306 | IHWC | ≤ 0.2
